Read counts are not given, so values of variants with three or more changes are uncertain.
B1: LINE1-mini (parent)
chain: GGCAGAGCUCAACACAGCGUGGCAAAGUGGCUGUGGCUAGACUGCC

Variants of: B1
Experiment: self-cleavage, relative activity (ratio to wild type); higher = more cleavage; in vitro, sequencing; the parent is a self-cleaving ribozyme

| Variant | self-cleavage |
| --- | --- |
| A12C C18U G44A | 0.03 |
| A12C C23A A24C G27A | 0 |
| A12C C23A U38C | 0.01 |
| A12C C23U G29A | 0.02 |
| A12C C23U G44U | 0.01 |
| A12C C31A C46U | 0.02 |
| A12C C31G U32C U38C C45G | 0 |
| A12C C37U A39C G44U | 0 |
| A12C C42U U43C | 0 |
| A12C G17A U38C A39U | 0.02 |
| A12C G17C G21U G35A | 0.01 |
| A12C G17C G30A A41C | 0.01 |
| A12C G17U A25U U43A | 0.02 |
| A12C G17U A26C G27U | 0.01 |
| A12C G17U A41C | 0.01 |
| A12C G19A A26U | 0.02 |
| A12C G19A G29C G33A | 0.01 |
| A12C G19A U28C A39U C42G | 0.01 |
| A12C G21A C37A G44C C45A | 0.01 |
| A12C G21A G33C C37A U38C C45A | 0.01 |
| A12C G21A U28C C46A | 0 |
| A12C G21U A39G C42A | 0 |
| A12C G22A A25U C45A | 0.02 |
| A12C G22C A25G | 0.01 |

| Variant | self-cleavage |
| --- | --- |
| A12C G22C C23A | 0.03 |
| A12C G22C C23U C37U | 0 |
| A12C G22U A39G | 0 |
| A12C G22U G27U | 0.01 |
| A12C G22U G29C C42A | 0.04 |
| A12C G27U U28G C46A | 0.01 |
| A12C G29A G36A A41C | 0.03 |
| A12C G29C C42A | 0.01 |
| A12C G29U U38C | 0 |
| A12C G30U C37U G40A | 0.02 |
| A12C G30U U32G U34C C42U | 0 |
| A12C G33A G35C | 0.02 |
| A12C G36A C37A | 0.01 |
| A12C G36A U38G G40U C46A | 0 |
| A12C G36C U38A | 0.02 |
| A12C G40A A41C | 0 |
| A12C G40A C45U | 0.03 |
| A12C U20A A26U G27A C37U | 0.01 |
| A12C U20A C37U | 0 |
| A12C U20A C45G | 0.01 |
| A12C U20A G21A U34A | 0.04 |
| A12C U20G G29U | 0 |
| A12C U20G G30A | 0.03 |
| A12C U28G G30A C45A | 0.01 |

| Variant | self-cleavage |
| --- | --- |
| A12C U34A G36C | 0.02 |
| A12C U34C C46G | 0.03 |
| A12C U34C G35C | 0.04 |
| A12C U38C A41C | 0.01 |
| A12C U38G A39G | 0.01 |
| A12G A14C C23A G35C U43A | 0.05 |
| A12G A14G C18A A25C C42A | 0.07 |
| A12G A14G C37A G44A | 0.04 |
| A12G A16G C31G G33U G40U | 0.21 |
| A12G A16G G19C | 0.05 |
| A12G A16U A25G | 0.04 |
| A12G A16U C46A | 0.02 |
| A12G A24G C31A G33U C37A C42U | 0.04 |
| A12G A24U G30A U34G G44C | 0.06 |
| A12G A24U U34A | 0.02 |
| A12G A25C A39U | 0.06 |
| A12G A25C G30C | 0.05 |
| A12G A25U A26C G27C C37U | 0.1 |
| A12G A25U G30U G33C | 0 |
| A12G A25U G36C | 0.01 |
| A12G A26C G33U | 0.04 |
| A12G A26G A39G | 0 |
| A12G A41C C46G | 0.02 |
| A12G A41C G44A C45G | 0.04 |

| Variant | self-cleavage |
| --- | --- |
| A12G A41U C46A | 0 |
| A12G C13A G17C G35U G40U C42U | 0.03 |
| A12G C13G G29U | 0.17 |
| A12G C13G G33C | 0 |
| A12G C13U A26C | 0.01 |
| A12G C13U G19U G36C C46G | 0.03 |
| A12G C13U U32G C37G C42G | 0 |
| A12G C15A A41C | 0.02 |
| A12G C15A G29A G40A | 0 |
| A12G C15A G33C | 0.03 |
| A12G C18A A24U A39U U43C | 0.02 |
| A12G C18A C23G A26C G27A | 0.02 |
| A12G C18A G30U C45U | 0.05 |
| A12G C18A G33U | 0.03 |
| A12G C18G A26C | 0 |
| A12G C18U G21A U38G C46U | 0.01 |
| A12G C23A G33U G35A G40A G44A | 0.05 |
| A12G C23G A24C G27A G35A G36C A39G A41U | 0.02 |
| A12G C23G A26U U34G | 0.01 |
| A12G C23U A26G C46G | 0.03 |
| A12G C31A C37A C46G | 0.04 |
| A12G C31A G33C U34C | 0.06 |
| A12G C31G A39G G40C U43C | 0.04 |
| A12G C31G A41G C46U | 0.03 |

| Variant | self-cleavage |
| --- | --- |
| A12G C37A C42U C46A | 0.03 |
| A12G G17A A41G | 0.02 |
| A12G G17C U20C | 0.02 |
| A12G G17U A25U G36C | 0.04 |
| A12G G17U G36A U38A G44C C45A | 0.26 |
| A12G G19A C31U G36U | 0.06 |
| A12G G19A G27C G29U C37A | 0.01 |
| A12G G19U A25U G29U U32G G35U A39G | 0.01 |
| A12G G19U C23A | 0.01 |
| A12G G19U G30A | 0.01 |
| A12G G19U G30U | 0.03 |
| A12G G19U U28C C46U | 0.01 |
| A12G G21A G27C | 0.08 |
| A12G G21C A25U A26U G27U | 0.01 |
| A12G G21U A24G | 0 |
| A12G G21U G29A U32G | 0.02 |
| A12G G21U U34A C45A | 0.19 |
| A12G G22A A25G G30U C42G | 0 |
| A12G G22C G27C A39G | 0.01 |
| A12G G22U G27C | 0.02 |
| A12G G22U G40U | 0.03 |
| A12G G22U G44A | 0.02 |
| A12G G27A C46A | 0.06 |
| A12G G27C G30C | 0.04 |

| Variant | self-cleavage |
| --- | --- |
| A12G G27C U32A | 0.05 |
| A12G G27C U38A | 0 |
| A12G G27U C45U | 0.06 |
| A12G G29A G40U | 0.08 |
| A12G G29U C37G A39C G40C C42U G44U | 0 |
| A12G G30A C31A | 0.03 |
| A12G G33A C42A | 0.04 |
| A12G G33U A41U C42A | 0.09 |
| A12G G33U C42A | 0.02 |
| A12G G33U C45U | 0.05 |
| A12G G36C G40C | 0.02 |
| A12G U20A A25U G40A | 0.05 |
| A12G U20A C37U | 0.14 |
| A12G U20A G35A | 0.01 |
| A12G U20C G29A | 0.05 |
| A12G U20G G40U | 0.03 |
| A12G U20G U32A G40U | 0.01 |
| A12G U28A G35U A41C | 0 |
| A12G U32A G40A G44C | 0.06 |
| A12G U32G C37G | 0.05 |
| A12G U43A G44A | 0.01 |
| A12U A14C A24G C42G | 0.01 |
| A12U A14C G33A | 0.03 |
| A12U A14C G33U U34G C45G | 0.01 |

| Variant | self-cleavage |
| --- | --- |
| A12U A14G A24C | 0.07 |
| A12U A14G A24U G30U C31A G35C C37U C45U | 0.03 |
| A12U A16U G17C | 0.07 |
| A12U A24C A25G A26C C42U C46A | 0.02 |
| A12U A24C G27A A41C | 0.03 |
| A12U A24C G44A | 0.03 |
| A12U A24G G35C | 0.01 |
| A12U A24U G33U | 0.05 |
| A12U A25G U34A G35C C42A | 0.03 |
| A12U A25U G44C C45G | 0.01 |
| A12U A26C G33C G44A | 0.04 |
| A12U A26G G29A U34C | 0.03 |
| A12U A26U U34A | 0.03 |
| A12U A39C C45U | 0.09 |
| A12U C13A G17A A26C | 0.02 |
| A12U C13A G22C G27U | 0.06 |
| A12U C13A G36C | 0.03 |
| A12U C13A U34G U43G | 0.05 |
| A12U C13G C42U | 0.08 |
| A12U C13G G21U G33A | 0.03 |
| A12U C13G G30U G33A | 0.03 |
| A12U C13U C42A | 0.05 |
| A12U C13U G19A | 0.06 |
